Assay results reported in the supplement of paper PMC6609913.
Where a name gives a salt, the structure may show the parent alone. ± gives the standard deviation of the averaged measurements. The full ranking holds about 1,300 compounds; the median of “normalised cell viability” is about 1, and the lowest 2% start at about 0.15. The list shows a part of the results.

System: V-C8 + BRCA2 (BRCA2-proficient hamster cells)
Assay: normalised cell viability (fraction of plate median); higher = more viable cells (less toxic)
Details: 5 µM
Method in brief: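 Cell viability was measured with a resazurin assay, normalised to the plate median (modified robust per cent of sample) and averaged over triplicate wells. Hamster V-C8 cells lacking BRCA2 and V-C8 cells with BRCA2 restored were seeded in 96-well plates. After 24 h, library drugs from 10 mM DMSO stocks were added at a final 5 μM in 100 μl medium and left for 3 days (screen 1) or 6 days (screen 2), with solvent-only wells alongside.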

Row | SMILES | normalised cell viability (treatment time: 3 days) | normalised cell viability (treatment time: 6 days)
1 | CCC(=O)[C@@]1(C)[C@H](C)C[C@H]2[C@@H]3CCC4=CC(=O)C=C[C@]4(C)[C@H]3[C@@H](O)C[C@@]21C [Rimexolone] | 1.04 ± 0.054 | 0.86 ± 0.18
2 | CCc1cc(C(N)=S)ccn1 [Ethionamide] | 0.997 ± 0.021 | 0.945 ± 0.11
3 | CC(=O)Nc1c(I)c(NC(C)=O)c(I)c(C(=O)O)c1I [Diatrizoic acid dihydrate] | 0.996 ± 0.035 | 1.05 ± 0.077
4 | CN(N=O)C(=O)N[C@@H](C=O)[C@@H](O)[C@H](O)[C@H](O)CO [Streptozotocin] | 1.07 ± 0.073 | 1.06 ± 0.053
5 | CN1CCN(C(c2ccccc2)c2ccc(Cl)cc2)CC1 (stereo unspecified) [Chlorcyclizine hydrochloride] | 1.05 ± 0.17 | 0.833 ± 0.098
6 | O=C(N/N=C/c1ccc([N+](=O)[O-])o1)c1ccc(O)cc1 [Nifuroxazide] | 0.488 ± 0.023 | 0.437 ± 0.077
7 | O=C1C=CC(=O)c2c1ccc1c2ccc2ccccc21 [Chrysene-1,4-quinone] | 1.024 ± 0.0027 | 1 ± 0.11
8 | Cc1ccc(/C(=C\CN2CCCC2)c2ccccn2)cc1 [Triprolidine hydrochloride] | 1.01 ± 0.025 | 1.09 ± 0.029
9 | CC(C)(O/N=C(\C(=O)N[C@@H]1C(=O)N2C(C(=O)[O-])=C(C[n+]3ccccc3)CS[C@H]12)c1csc(N)n1)C(=O)O [Ceftazidime pentahydrate] | 1.03 ± 0.011 | 1 ± 0.039
10 | Cc1c(Cl)cccc1Nc1ncccc1C(=O)O [Clonixin Lysinate] | 0.938 ± 0.067 | 0.983 ± 0.046
11 | CNCCC=C1c2ccccc2CCc2ccccc21 [Nortriptyline hydrochloride] | 0.876 ± 0.045 | 0.904 ± 0.033
12 | C[C@H]1[C@H](NC(=O)/C(=N\OC(C)(C)C(=O)O)c2csc(N)n2)C(=O)N1S(=O)(=O)O [Aztreonam] | 0.977 ± 0.025 | 1.03 ± 0.043
13 | CCc1c2c(nc3ccc(OC(=O)N4CCC(N5CCCCC5)CC4)cc13)-c1cc3c(c(=O)n1C2)COC(=O)[C@]3(O)CC [Irinotecan Hydrochloride] | 0.797 ± 0.036 | 0.743 ± 0.038
14 | COc1cc(C)nc(-n2nc(C)cc2OC)n1 [Epirizole] | 1.05 ± 0.028 | 0.992 ± 0.015
15 | CS(=O)(=O)Nc1ccc([N+](=O)[O-])cc1Oc1ccccc1 [Nimesulide] | 1.04 ± 0.029 | 1.09 ± 0.1
16 | CCn1cc(C(=O)O)c(=O)c2cc(F)c(N3CCNC(C)C3)c(F)c21 (stereo unspecified) [Lomefloxacin hydrochloride] | 0.99 ± 0.1 | 0.982 ± 0.078
17 | CNC(=C[N+](=O)[O-])NCCSCc1csc(CN(C)C)n1 [Nizatidine] | 1 ± 0.012 | 1.05 ± 0.042
18 | C[C@]12C=CC(=O)C=C1CC[C@@H]1[C@@H]2C(=O)C[C@@]2(C)[C@H]1CC[C@]2(O)C(=O)CO [Prednisone] | 0.942 ± 0.026 | 1.03 ± 0.17
19 | C[C@@H]1CN(c2c(F)c(N)c3c(=O)c(C(=O)O)cn(C4CC4)c3c2F)C[C@H](C)N1 [Sparfloxacin] | 1.027 ± 0.009 | 1.05 ± 0.056
20 | CCn1cc(C(=O)O)c(=O)c2cc(F)c(N3CCN(C)CC3)cc21 [Pefloxacine] | 1.048 ± 0.0097 | 1.09 ± 0.042
21 | CC[C@]12CCCN3CCc4c(n(c5ccccc45)C(=O)C1)[C@@H]32 [Eburnamonine (-)] | 0.469 ± 0.075 | 0.493 ± 0.16
22 | CC(=O)Oc1cc(C(C)C)c(OCCN(C)C)cc1C [Moxisylyte hydrochoride] | 1.04 ± 0.0057 | 1.04 ± 0.021
23 | CC(c1cc2ccccc2s1)N(O)C(N)=O (stereo unspecified) [Zileuton] | 1.04 ± 0.029 | 1.04 ± 0.035

Row | SMILES | normalised cell viability (treatment time: 3 days) | normalised cell viability (treatment time: 6 days)
24 | COc1cc(C)c(/C=C/C(C)=C/C=C/C(C)=C/C(=O)O)c(C)c1C [Acitretin] | 0.936 ± 0.031 | 0.9633 ± 0.0092
25 | CC(C)OC(=O)CCC/C=C\C[C@@H]1[C@@H](CC[C@@H](O)CCc2ccccc2)[C@H](O)C[C@@H]1O [Latanoprost] | 1.12 ± 0.051 | 0.955 ± 0.077
26 | NS(=O)(=O)c1cc2c(cc1Cl)NCNS2(=O)=O [Hydrochlorothiazide] | 0.885 ± 0.087 | 1.01 ± 0.035
27 | C[N+]1(C)CCC(=C(c2ccccc2)c2ccccc2)CC1 [Diphemanil methylsulfate] | 0.949 ± 0.027 | 0.953 ± 0.031
28 | CN(C)CCC=C1c2ccccc2C=Cc2ccccc21 [Cyclobenzaprine hydrochloride] | 1.06 ± 0.062 | 1.08 ± 0.034
29 | O=c1[nH]c(=O)n([C@H]2C[C@H](O)[C@@H](CO)O2)cc1F [Floxuridine] | 0.179 ± 0.0082 | 0.236 ± 0.018
30 | CNNCc1ccc(C(=O)NC(C)C)cc1 [Procarbazine hydrochloride] | 0.879 ± 0.049 | 0.956 ± 0.099
31 | COc1cc2nc(N3CCN(C(=O)C4CCCO4)CC3)nc(N)c2cc1OC (stereo unspecified) [Terazosin hydrochloride] | 1.03 ± 0.032 | 1.09 ± 0.075
32 | Nc1ccc(S(=O)(=O)Nc2ccc(Cl)nn2)cc1 [Sulfachloropyridazine] | 0.941 ± 0.026 | 0.972 ± 0.065
33 | CN(C)CCCOc1nn(Cc2ccccc2)c2ccccc12 [Benzydamine hydrochloride] | 1.32 ± 0.034 | 1.38 ± 0.08
34 | C#C[C@]1(O)CC[C@H]2[C@@H]3[C@H](C)CC4=C(CCC(=O)C4)[C@H]3CC[C@@]21C [Tibolone] | 1.07 ± 0.013 | 1.04 ± 0.045
35 | CC(=O)OCC(=O)[C@@]1(O)CC[C@H]2[C@@H]3CCC4=CC(=O)C=C[C@]4(C)[C@@]3(F)[C@@H](O)C[C@@]21C [Isoflupredone acetate] | 0.901 ± 0.067 | 1.02 ± 0.08
36 | NCc1ccccc1CC(=O)N[C@@H]1C(=O)N2C(C(=O)O)=C(CSc3nnnn3CC(=O)O)CS[C@H]12 [Ceforanide] | 1.04 ± 0.073 | 1.01 ± 0.12
37 | N=C(NCCCCCCNC(=N)NC(=N)Nc1ccc(Cl)cc1)NC(=N)Nc1ccc(Cl)cc1 [Chlorhexidine] | 0.117 ± 0.0076 | 0.103 ± 0.0066
38 | CN1CCN(C2=Nc3ccccc3Oc3ccc(Cl)cc32)CC1 [Loxapine succinate] | 1.19 ± 0.087 | 1.1 ± 0.048
39 | C[N+]1(C)CCC(OC(=O)C(O)(c2ccccc2)C2CCCC2)C1 (stereo unspecified) [Glycopyrrolate] | 1.07 ± 0.012 | 1.04 ± 0.12
40 | Clc1ccc(CCC(Cn2ccnc2)Sc2c(Cl)cccc2Cl)cc1 (stereo unspecified) [Butoconazole nitrate] | 0.898 ± 0.05 | 0.906 ± 0.057
41 | N#Cc1ccc(C(c2ccc(C#N)cc2)n2cncn2)cc1 [Letrozole] | 1.02 ± 0.022 | 1.02 ± 0.028
42 | C[C@@H]1C[C@H]2[C@@H]3C[C@H](F)C4=CC(=O)C=C[C@]4(C)[C@@]3(F)[C@@H](O)C[C@]2(C)[C@@]1(O)C(=O)CO [Flumethasone] | 1.04 ± 0.064 | 1.06 ± 0.079
43 | O=C(O)Cc1ccc(-c2ccccc2)cc1 [Felbinac] | 1.03 ± 0.03 | 1.09 ± 0.037
44 | O=C(O)c1cn(-c2ccc(F)cc2)c2cc(N3CCNCC3)c(F)cc2c1=O [Sarafloxacin] | 1.07 ± 0.09 | 1.02 ± 0.044
45 | O=C1c2c(O)cccc2Cc2cccc(O)c21 [Anthralin] | 0.979 ± 0.036 | 0.978 ± 0.018
46 | COc1cc(C(=O)OCCCN2CCCN(CCCOC(=O)c3cc(OC)c(OC)c(OC)c3)CC2)cc(OC)c1OC [Dilazep dihydrochloride] | 0.913 ± 0.096 | 0.92 ± 0.077

Row | SMILES | normalised cell viability (treatment time: 3 days) | normalised cell viability (treatment time: 6 days)
47 | CC(=O)Oc1ccccc1C(=O)Nc1ncc([N+](=O)[O-])s1 [Nitazoxanide] | 0.912 ± 0.043 | 0.97 ± 0.099
48 | CCN(CC)CCOC(=O)C1(C2CCCCC2)CCCCC1 [Dicyclomine hydrochloride] | 1.06 ± 0.026 | 0.997 ± 0.016
49 | CCCCC(O)c1ccccc1 (stereo unspecified) [Fenipentol] | 1.03 ± 0.043 | 1.03 ± 0.017
50 | CC(N/C(=N\C#N)Nc1ccncc1)C(C)(C)C (stereo unspecified) [Pinacidil] | 0.994 ± 0.056 | 0.967 ± 0.027
51 | NS(=O)(=O)c1cc(C2(O)NC(=O)c3ccccc32)ccc1Cl (stereo unspecified) [Chlorthalidone] | 1.1 ± 0.018 | 1.03 ± 0.079
52 | C=CC(N)CCC(=O)O (stereo unspecified) [Vigabatrin] | 1.02 ± 0.03 | 1.11 ± 0.058
53 | CC(C)c1c(C(=O)Nc2ccccc2)c(-c2ccccc2)c(-c2ccc(F)cc2)n1CC[C@@H](O)C[C@@H](O)CC(=O)O [Atorvastatin] | 0.701 ± 0.01 | 0.743 ± 0.017
54 | Cc1ncc(C[n+]2csc(CCO)c2C)c(N)n1 [Thiamine hydrochloride] | 1.03 ± 0.043 | 1.02 ± 0.076
55 | CC(=O)OCC(=O)[C@@]1(O)CC[C@H]2[C@@H]3CCC4=CC(=O)CC[C@]4(C)[C@H]3[C@@H](O)C[C@@]21C [Cortisol acetate] | 1.07 ± 0.047 | 1.14 ± 0.14
56 | CCN[C@H]1CN(CCCOC)S(=O)(=O)c2sc(S(N)(=O)=O)cc21 [Brinzolamide] | 1.16 ± 0.015 | 1.02 ± 0.024
57 | CC[N+](C)(CC)CCOC(=O)C1c2ccccc2Oc2ccccc21 [Methantheline bromide] | 1.02 ± 0.039 | 0.993 ± 0.1
58 | Cc1ccc(C(=O)c2ccc(CC(=O)O)n2C)cc1 [Tolmetin sodium salt dihydrate] | 1.03 ± 0.035 | 1 ± 0.021
59 | COC(=O)Nc1nc2cc(C(=O)c3cccs3)ccc2[nH]1 [Nocodazole] | 0.143 ± 0.0097 | 0.132 ± 0.01
60 | CCCCN(CCCC)CCCOC(=O)c1ccc(N)cc1 [Butacaine] | 1.01 ± 0.022 | 1.08 ± 0.044
61 | CC(=O)OCC(=O)[C@@]1(O)CC[C@H]2[C@@H]3CCC4=CC(=O)CC[C@]4(C)[C@@]3(F)[C@@H](O)C[C@@]21C [Fludrocortisone acetate] | 1.04 ± 0.025 | 1.05 ± 0.039
62 | Cc1cn[nH]c1 [Fomepizole] | 1.07 ± 0.021 | 0.9639 ± 0.0076
63 | NCCc1c[nH]cn1 [Histamine dihydrochloride] | 0.994 ± 0.016 | 0.991 ± 0.064
64 | CCCOc1cc(N)ccc1C(=O)OCCN(CC)CC [Propoxycaine hydrochloride] | 1.06 ± 0.053 | 0.916 ± 0.26
65 | OC(Cn1cncn1)(Cn1cncn1)c1ccc(F)cc1F [Fluconazole] | 1.04 ± 0.019 | 0.944 ± 0.079
66 | CC[N+](C)(C)c1cccc(O)c1 [Edrophonium chloride] | 0.863 ± 0.029 | 0.972 ± 0.018
67 | CN1CCC(=C2c3ccccc3C=Cc3ccccc32)CC1 [Cyproheptadine hydrochloride] | 0.94 ± 0.067 | 0.959 ± 0.08
68 | CO[C@H]1/C=C/O[C@@]2(C)Oc3c(C)c(O)c4c(O)c(c(/C=N/N5CCN(C6CCCC6)CC5)c(O)c4c3C2=O)NC(=O)/C(C)=C\C=C\[C@H](C)[C@H](O)[C@@H](C)[C@@H](O)[C@@H](C)[C@H](OC(C)=O)[C@@H]1C [Rifapentine] | 0.985 ± 0.021 | 0.954 ± 0.072
